The whole screen tested about 310,000 compounds, of which about 2,200 (0.71%) showed an effect of 50% or more. Effects have a minus sign here. This is one part of the list.

From publication PMC4336329 (PLoS ONE, 2015) come the findings set out here.

The assay deals with human ether-à-go-go-related gene (hERG) potassium channel (human, UniProt Q12809). In words: primary screen, population patch clamp on CHO cells stably expressing hERG.
Sequence of human ether-à-go-go-related gene (hERG) potassium channel (Q12809 whole entry, looked up): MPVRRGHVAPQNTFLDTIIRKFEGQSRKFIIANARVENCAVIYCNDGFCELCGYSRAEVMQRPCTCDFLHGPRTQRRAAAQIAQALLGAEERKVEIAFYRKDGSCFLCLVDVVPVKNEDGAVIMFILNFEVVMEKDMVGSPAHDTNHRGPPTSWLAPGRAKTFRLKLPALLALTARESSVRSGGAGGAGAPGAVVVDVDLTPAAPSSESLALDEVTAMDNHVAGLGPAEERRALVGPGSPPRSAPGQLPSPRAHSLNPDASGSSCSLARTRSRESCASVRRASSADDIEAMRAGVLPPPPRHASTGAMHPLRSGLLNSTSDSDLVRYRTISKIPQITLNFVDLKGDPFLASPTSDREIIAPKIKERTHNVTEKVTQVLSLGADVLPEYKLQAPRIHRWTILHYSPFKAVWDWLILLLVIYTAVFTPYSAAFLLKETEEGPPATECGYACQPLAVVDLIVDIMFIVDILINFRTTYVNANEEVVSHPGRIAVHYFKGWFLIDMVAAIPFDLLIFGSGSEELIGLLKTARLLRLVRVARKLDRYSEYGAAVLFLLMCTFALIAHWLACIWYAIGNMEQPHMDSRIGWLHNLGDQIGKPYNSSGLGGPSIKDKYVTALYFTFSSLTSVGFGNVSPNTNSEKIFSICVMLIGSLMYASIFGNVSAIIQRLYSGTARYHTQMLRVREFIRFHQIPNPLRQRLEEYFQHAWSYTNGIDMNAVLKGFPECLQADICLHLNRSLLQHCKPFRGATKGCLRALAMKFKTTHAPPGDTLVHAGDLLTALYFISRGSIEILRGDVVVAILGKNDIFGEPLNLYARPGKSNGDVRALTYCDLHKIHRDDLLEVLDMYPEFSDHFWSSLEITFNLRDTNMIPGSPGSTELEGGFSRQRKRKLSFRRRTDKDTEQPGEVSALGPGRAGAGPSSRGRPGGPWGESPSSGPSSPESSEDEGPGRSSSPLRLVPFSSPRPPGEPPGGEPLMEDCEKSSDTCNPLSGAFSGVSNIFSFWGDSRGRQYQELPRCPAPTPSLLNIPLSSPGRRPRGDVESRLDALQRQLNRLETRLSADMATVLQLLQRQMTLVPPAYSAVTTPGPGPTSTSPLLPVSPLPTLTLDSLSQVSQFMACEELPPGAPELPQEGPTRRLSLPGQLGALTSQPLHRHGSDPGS
Consider `CN1C(=O)C(=Cc2ccc(OCCN(C)c3ccccn3)cc2)C(=O)N(C)C1=O`, for which the “hERG current change (%, negative = inhibition) at 1uM” value is listed as 8.15%.

Take `CCOc1ccc(NC(=O)N2CCCC2C(=O)NCC2CCCO2)cc1` (stereo not drawn): the “hERG current change (%, negative = inhibition) at 1uM” value turned out to be 16.9%.

Regarding `COc1ccc(NC(=O)c2cc(C(=O)Nc3ccc(OC)cc3OC)cc([N+](=O)[O-])c2)c(OC)c1`, the “hERG current change (%, negative = inhibition) at 1uM” value came out at 15.5%.

As for `O=c1[nH]c(=S)[nH]c2scc(-c3ccc(Br)cc3)c12`, the “hERG current change (%, negative = inhibition) at 1uM” value was determined as 19.8%.

On to `CCCSc1nnc(CN2CCOCC2)n1C`, for which the “hERG current change (%, negative = inhibition) at 1uM” value is 14.4%.

For the molecule `COc1ccc(N2CCN(C(=O)CN(C)S(=O)(=O)c3ccc4c(c3)c(=O)n(C)c(=O)n4C)CC2)cc1`, the “hERG current change (%, negative = inhibition) at 1uM” value stood at 9.96%.

Take `O=C1c2ccccc2C(=O)c2c1cccc2N1CCN(CCO)CC1`: the “hERG current change (%, negative = inhibition) at 1uM” value was -64.7%.

As for `COc1ccc(NC(=O)CCS(=O)(=O)c2cccc3nonc23)c(OC)c1`, the “hERG current change (%, negative = inhibition) at 1uM” value is 10.8%.

For `CN1CCN(S(=O)(=O)c2cccc(C(=O)N(C)Cc3cccs3)c2)CC1`, the “hERG current change (%, negative = inhibition) at 1uM” value is recorded as 7.17%.

On to `CCC(C)NC(=O)Nc1ccc(F)c(Cl)c1` (stereo not drawn), for which the “hERG current change (%, negative = inhibition) at 1uM” value is on record as 17.8%.

Consider `N#Cc1c(SCC(=O)Nc2cccc(F)c2)sc2c(O)cc(=O)[nH]c12`, for which the “hERG current change (%, negative = inhibition) at 1uM” value worked out at 11.5%.

Take `CN1CCN(C(=O)CNc2ccc(C(F)(F)F)cc2[N+](=O)[O-])CC1`: the “hERG current change (%, negative = inhibition) at 1uM” value is -4.92%.

As for `COc1ccc(-c2cc(C(=O)Nc3cc(Cl)ccc3O)no2)cc1`, the “hERG current change (%, negative = inhibition) at 1uM” value is on record as 13.7%.

Turning to `O=C(COc1cccc2cccnc12)N1CCc2ccccc2C1`, the “hERG current change (%, negative = inhibition) at 1uM” value worked out at 4.59%.

As to `CC1(C)CC(=O)C2=C(C1)NC(Nc1nc3ccccc3o1)=NC21CCCC1`, the “hERG current change (%, negative = inhibition) at 1uM” value is 0.0528%.

Consider `CCOC(=O)C1(Cc2ccccc2Cl)CCN(C(=O)CCn2ccnc2C)CC1`, for which the “hERG current change (%, negative = inhibition) at 1uM” value was determined as 2.18%.

Turning to `CCN(CC)S(=O)(=O)c1ccc(-c2nnc(SCC(C)=O)o2)cc1`, the “hERG current change (%, negative = inhibition) at 1uM” value was 1.27%.

With `CCCCNC(=O)CCn1c(=S)[nH]c2cc3c(cc2c1=O)OCO3`, the “hERG current change (%, negative = inhibition) at 1uM” value is given as 1.57%.

Consider `COc1ccccc1C1(CC(=O)N2CCOCC2)CCOC(C(C)C)C1` (stereo not drawn), for which the “hERG current change (%, negative = inhibition) at 1uM” value is 6.53%.

Consider `Cc1nc2nc(SCC(=O)O)nn2c(C)c1Cc1c(F)cccc1Cl`, for which the “hERG current change (%, negative = inhibition) at 1uM” value came out at 14.3%.

As for `COc1cc2c(C(=O)Nc3ccccc3F)cn(C)c(=O)c2cc1OC`, the “hERG current change (%, negative = inhibition) at 1uM” value stood at 11.7%.

Take `Cc1ccc(S(=O)(=O)N2CCN(C(=O)COC(=O)/C=C/c3ccc(F)cc3)CC2)c(C)c1`: the “hERG current change (%, negative = inhibition) at 1uM” value stood at 17.6%.

In the case of `COC(=O)C(C)Sc1snnc1-c1ccccc1` (stereo not drawn), the “hERG current change (%, negative = inhibition) at 1uM” value is recorded as 10.4%.

Turning to `CCOC(=O)CN(C(=O)Cn1nnc2ccccc21)C(C(=O)NCCOC)c1ccccc1` (stereo not drawn), the “hERG current change (%, negative = inhibition) at 1uM” value is recorded as 2.99%.

`CCC(=O)Nc1ccc(C(=O)OCc2ccccc2Cl)cc1`: the “hERG current change (%, negative = inhibition) at 1uM” value is on record as 4.84%.

As for `Cc1ccc(C)c(NC(=S)NCCc2ccc(F)cc2)c1`, the “hERG current change (%, negative = inhibition) at 1uM” value came to 8.55%.

On to `Cc1ccc(SCc2c(-c3ccccc3)nn(C)c2Cl)cc1`, for which the “hERG current change (%, negative = inhibition) at 1uM” value is 5.94%.

Take `O=C(Cn1cnc2ccccc21)Nc1ccc(F)c(F)c1`: the “hERG current change (%, negative = inhibition) at 1uM” value is on record as 3.75%.

In the case of `CCOC(=O)N1CCC(NC(=O)c2ccc3c(c2)N(Cc2ccccc2)CCS3)CC1`, the “hERG current change (%, negative = inhibition) at 1uM” value was determined as 13.7%.

As to `CCC(=O)Nc1ccc(S(=O)(=O)Nc2ccccn2)cc1`, the “hERG current change (%, negative = inhibition) at 1uM” value stood at 16.9%.

Consider `NC(=O)N/N=C/c1coc2ccc(O)cc2c1=O`, for which the “hERG current change (%, negative = inhibition) at 1uM” value worked out at 14.2%.

On to `CCOC(=O)c1c(C)n2c3c(cc(C)cc13)CCC2`, for which the “hERG current change (%, negative = inhibition) at 1uM” value is 7.99%.

As for `CC1CCCC(C)N1C(=O)CCN1C(=O)C2C3C=CC(C3)C2C1=O` (stereo not drawn), the “hERG current change (%, negative = inhibition) at 1uM” value is reported as 13.3%.

As to `CCOc1ccc(CCNC(=O)C2=C(C)C(=O)OC23CCC(C)CC3)cc1OCC` (stereo not drawn), the “hERG current change (%, negative = inhibition) at 1uM” value is 0.121%.

Take `COCCCNC(=O)c1cn(C)c(=O)c2cc(OC)c(OC)cc12`: the “hERG current change (%, negative = inhibition) at 1uM” value worked out at 14.1%.

Regarding `CCn1c(CSc2nnc(C)n2-c2ccccc2)nc2cc(S(=O)(=O)N(C)C)ccc21`, the “hERG current change (%, negative = inhibition) at 1uM” value was -2.51%.

With `c1ccc(Oc2cccc(CN3CCOCC3)c2)cc1`, the “hERG current change (%, negative = inhibition) at 1uM” value is given as -8.51%.

Consider `CCC(=O)NCC(=O)OCC(=O)c1ccccc1`, for which the “hERG current change (%, negative = inhibition) at 1uM” value came out at 11.4%.

With `Cc1nc(N2CCN(C(=O)c3ccco3)CC2)c2oc3ccccc3c2n1.Cl`, the “hERG current change (%, negative = inhibition) at 1uM” value is on record as -21.6%.

As to `CNC(=O)c1cc2c(=O)n3cccc(C)c3nc2n(C(C)C)c1=N`, the “hERG current change (%, negative = inhibition) at 1uM” value is -82.3%.

In the case of `Cc1cc(C(C)(C)C)c(OC(=O)[C@@H]2OC(c3ccccc3)=C[C@H]2c2ccccc2)c(C(C)(C)C)c1`, the “hERG current change (%, negative = inhibition) at 1uM” value worked out at 18.6%.

Turning to `CCN(CC)S(=O)(=O)c1cccc(C(=O)NCCCn2ccnc2)c1`, the “hERG current change (%, negative = inhibition) at 1uM” value turned out to be 9.38%.

Turning to `CCc1cc2c(NCc3ccccc3)nc(C)nc2s1.Cl`, the “hERG current change (%, negative = inhibition) at 1uM” value is on record as 8.39%.

As for `Cn1c(=O)[nH]c(=O)c2c1nc(NC1CCCCC1)n2Cc1ccccc1`, the “hERG current change (%, negative = inhibition) at 1uM” value turned out to be 12.3%.

`CC1CC(CC(C)C(=O)Nc2nncs2)C(=O)O1` (stereo not drawn): the “hERG current change (%, negative = inhibition) at 1uM” value is reported as -7.98%.
